Reference: the supplement of paper PMC8728848
This is one part of the list.

Experiments:
Assay in all cases: glycan array binding signal (z-score within array); higher = stronger binding
Conditions in all cases: glycan notation: IUPAC condensed, linker removed; mutation: F63H
[1] = target: Fuc(a1-3)[Gal3S(b1-4)]GlcNAc
Summary of the method: (§1)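 The Consortium for Functional Glycomics database supplied 3228 glycan arrays, of which those lacking an available protein sequence were dropped. The binding signal, a within-array Z-score, was averaged across arrays of the same protein sequence and across linkers. Negative scores can be read as non-binding.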

[2] = target: Fuc(a1-3)[Gal3S(b1-4)]GlcNAc6S
Summary of the method: as §1

[3] = target: Fuc(a1-3)[GalNAc(b1-4)]GlcNAc
Summary of the method: as §1

[4] = target: Fuc(a1-3)[GalNAc(b1-4)]GlcNAc6S
Summary of the method: as §1

[5] = target: Fuc(a1-4)GlcNAc
Summary of the method: as §1

[6] = target: Fuc(b1-3)GlcNAc
Summary of the method: as §1

[7] = target: Gal(a1-2)Gal
Summary of the method: as §1

[8] = target: Gal(a1-3)Gal
Summary of the method: as §1

[9] = target: Gal(a1-3)Gal(b1-3)GlcNAc
Summary of the method: as §1

[10] = target: Gal(a1-3)Gal(b1-3)GlcNAc(b1-2)Man
Summary of the method: as §1

[11] = target: Gal(a1-3)Gal(b1-3)GlcNAc(b1-2)Man(a1-3)[Gal(a1-3)Gal(b1-3)GlcNAc(b1-2)Man(a1-6)]Man(b1-4)GlcNAc(b1-4)GlcNAc
Summary of the method: as §1

[12] = target: Gal(a1-3)Gal(b1-3)GlcNAc(b1-3)GalNAc
Summary of the method: as §1

[13] = target: Gal(a1-3)Gal(b1-3)GlcNAc(b1-6)GalNAc
Summary of the method: as §1

[14] = target: Gal(a1-3)Gal(b1-3)[Fuc(a1-4)]GlcNAc(b1-2)Man(a1-3)[Gal(a1-3)Gal(b1-3)[Fuc(a1-4)]GlcNAc(b1-2)Man(a1-6)]Man(b1-4)GlcNAc(b1-4)GlcNAc
Summary of the method: as §1

[15] = target: Gal(a1-3)Gal(b1-4)Glc
Summary of the method: as §1

[16] = target: Gal(a1-3)Gal(b1-4)GlcNAc
Summary of the method: as §1

[17] = target: Gal(a1-3)Gal(b1-4)GlcNAc(b1-2)Man
Summary of the method: as §1

[18] = target: Gal(a1-3)Gal(b1-4)GlcNAc(b1-2)Man(a1-3)[Gal(a1-3)Gal(b1-4)GlcNAc(b1-2)Man(a1-6)]Man(b1-4)GlcNAc(b1-4)GlcNAc
Summary of the method: as §1

[19] = target: Gal(a1-3)Gal(b1-4)GlcNAc(b1-3)GalNAc
Summary of the method: as §1

[20] = target: Gal(a1-3)Gal(b1-4)GlcNAc(b1-6)GalNAc
Summary of the method: as §1

[21] = target: Gal(a1-3)Gal(b1-4)[Fuc(a1-3)]GlcNAc
Summary of the method: as §1

[22] = target: Gal(a1-3)Gal(b1-4)[Fuc(a1-3)]GlcNAc(b1-2)Man(a1-3)[Gal(a1-3)Gal(b1-4)[Fuc(a1-3)]GlcNAc(b1-2)Man(a1-6)]Man(b1-4)GlcNAc(b1-4)GlcNAc
Summary of the method: as §1

[23] = target: Gal(a1-3)GalNAc
Summary of the method: as §1

[24] = target: Gal(a1-3)[Gal(a1-4)]Gal(b1-4)GlcNAc
Summary of the method: as §1

[25] = target: Gal(a1-4)Gal(b1-3)GlcNAc(b1-2)Man(a1-3)[Gal(a1-4)Gal(b1-3)GlcNAc(b1-2)Man(a1-6)]Man(b1-4)GlcNAc(b1-4)GlcNAc
Summary of the method: as §1

[26] = target: Gal(a1-4)Gal(b1-4)Glc
Summary of the method: as §1

[27] = target: Gal(a1-4)Gal(b1-4)GlcNAc
Summary of the method: as §1

[28] = target: Gal(a1-4)Gal(b1-4)GlcNAc(b1-2)Man(a1-3)[Gal(a1-4)Gal(b1-4)GlcNAc(b1-2)Man(a1-6)]Man(b1-4)GlcNAc(b1-4)GlcNAc
Summary of the method: as §1

[29] = target: Gal(a1-4)Gal(b1-4)GlcNAc(b1-3)Gal(b1-4)Glc
Summary of the method: as §1

[30] = target: Gal(a1-4)GlcNAc
Summary of the method: as §1

[31] = target: Gal(a1-6)Glc
Summary of the method: as §1

[32] = target: Gal(b1-2)Gal
Summary of the method: as §1

[33] = target: Gal(b1-3)Gal
Summary of the method: as §1

[34] = target: Gal(b1-3)Gal(b1-4)GlcNAc
Summary of the method: as §1

[35] = target: Gal(b1-3)GalNAc
Summary of the method: as §1

[36] = target: Gal(b1-3)GalNAc(a1-3)[Fuc(a1-2)]Gal(b1-4)Glc
Summary of the method: as §1

[37] = target: Gal(b1-3)GalNAc(a1-3)[Fuc(a1-2)]Gal(b1-4)GlcNAc
Summary of the method: as §1

[38] = target: Gal(b1-3)GalNAc(b1-3)Gal
Summary of the method: as §1

[39] = target: Gal(b1-3)GalNAc(b1-3)Gal(a1-4)Gal(b1-4)Glc
Summary of the method: as §1

[40] = target: Gal(b1-3)GalNAc(b1-4)Gal(b1-4)Glc
Summary of the method: as §1

[41] = target: Gal(b1-3)GalNAc(b1-4)[Neu5Ac(a2-3)]Gal(b1-4)Glc
Summary of the method: as §1

[42] = target: Gal(b1-3)GlcNAc
Summary of the method: as §1

[43] = target: Gal(b1-3)GlcNAc(a1-3)Gal(b1-4)GlcNAc
Summary of the method: as §1

[44] = target: Gal(b1-3)GlcNAc(a1-6)Gal(b1-4)GlcNAc
Summary of the method: as §1

[45] = target: Gal(b1-3)GlcNAc(b1-2)Man
Summary of the method: as §1

B1: AAL (Agrocybe aegerita), Q6WY08 (protein)
chain: MQGVNIYNISAGTSVDLAAPVTTGDIVTFFSSALNLNAGAGNPNNTTLNLFAENGAYLLHIAHRLQENVIIFNSRQPDGPWLVEQRVSDVANQFAGIDGKAMVTVFDHGDKYQVVINEKTVIQYTKQISGLTLSLSYNATEETSIFSTVVEAVTYTGLALEHHHHHH
Question: B1 was tested. Which “glycan array binding signal (z-score)” value [1] did it give?
Answer: The value was -0.162.

Question: And the “glycan array binding signal (z-score)” value [2]?
Answer: The value was -0.069.

Question: And the “glycan array binding signal (z-score)” value [3]?
Answer: The value was 0.22.

Question: And the “glycan array binding signal (z-score)” value [4]?
Answer: The value was -0.005.

Question: What about the “glycan array binding signal (z-score)” value [5] of the same binder?
Answer: The value was 0.085.

Question: And the “glycan array binding signal (z-score)” value [6]?
Answer: The value was 0.06.

Question: And the “glycan array binding signal (z-score)” value [7]?
Answer: Its value is -0.435.

Question: And the “glycan array binding signal (z-score)” value [8]?
Answer: The value was -0.04.

Question: And the “glycan array binding signal (z-score)” value [9]?
Answer: Its value is 0.396.

Question: And the “glycan array binding signal (z-score)” value [10]?
Answer: Its value is 0.105.

Question: What about the “glycan array binding signal (z-score)” value [11] of the same binder?
Answer: The value was 0.08.

Question: And the “glycan array binding signal (z-score)” value [12]?
Answer: Its value is 0.097.

Question: And the “glycan array binding signal (z-score)” value [13]?
Answer: The value was 0.846.

Question: What about the “glycan array binding signal (z-score)” value [14] of the same binder?
Answer: The value was 0.328.

Question: And the “glycan array binding signal (z-score)” value [15]?
Answer: The value was -0.391.

Question: And the “glycan array binding signal (z-score)” value [16]?
Answer: Its value is -0.342.

Question: And the “glycan array binding signal (z-score)” value [17]?
Answer: Its value is -0.43.

Question: What about the “glycan array binding signal (z-score)” value [18] of the same binder?
Answer: The value was -0.111.

Question: What about the “glycan array binding signal (z-score)” value [19] of the same binder?
Answer: Its value is 0.052.

Question: And the “glycan array binding signal (z-score)” value [20]?
Answer: Its value is -0.072.

Question: What about the “glycan array binding signal (z-score)” value [21] of the same binder?
Answer: The value was -0.414.

Question: And the “glycan array binding signal (z-score)” value [22]?
Answer: Its value is -0.483.

Question: And the “glycan array binding signal (z-score)” value [23]?
Answer: The value was 0.122.

Question: What about the “glycan array binding signal (z-score)” value [24] of the same binder?
Answer: The value was 0.035.

Question: And the “glycan array binding signal (z-score)” value [25]?
Answer: Its value is 0.255.

Question: What about the “glycan array binding signal (z-score)” value [26] of the same binder?
Answer: Its value is -0.07.

Question: What about the “glycan array binding signal (z-score)” value [27] of the same binder?
Answer: The value was 0.151.

Question: What about the “glycan array binding signal (z-score)” value [28] of the same binder?
Answer: Its value is 0.969.

Question: And the “glycan array binding signal (z-score)” value [29]?
Answer: Its value is -0.143.

Question: And the “glycan array binding signal (z-score)” value [30]?
Answer: Its value is -0.628.

Question: What about the “glycan array binding signal (z-score)” value [31] of the same binder?
Answer: The value was 0.059.

Question: What about the “glycan array binding signal (z-score)” value [32] of the same binder?
Answer: The value was -0.365.

Question: And the “glycan array binding signal (z-score)” value [33]?
Answer: Its value is -0.026.

Question: What about the “glycan array binding signal (z-score)” value [34] of the same binder?
Answer: The value was -0.287.

Question: What about the “glycan array binding signal (z-score)” value [35] of the same binder?
Answer: The value was -0.177.

Question: What about the “glycan array binding signal (z-score)” value [36] of the same binder?
Answer: Its value is -0.298.

Question: What about the “glycan array binding signal (z-score)” value [37] of the same binder?
Answer: Its value is -0.341.

Question: And the “glycan array binding signal (z-score)” value [38]?
Answer: Its value is 0.645.

Question: What about the “glycan array binding signal (z-score)” value [39] of the same binder?
Answer: Its value is -0.387.

Question: What about the “glycan array binding signal (z-score)” value [40] of the same binder?
Answer: Its value is -0.435.

Question: And the “glycan array binding signal (z-score)” value [41]?
Answer: Its value is 0.145.

Question: And the “glycan array binding signal (z-score)” value [42]?
Answer: Its value is -0.2.

Question: What about the “glycan array binding signal (z-score)” value [43] of the same binder?
Answer: Its value is 0.927.

Question: And the “glycan array binding signal (z-score)” value [44]?
Answer: The value was -0.177.

Question: And the “glycan array binding signal (z-score)” value [45]?
Answer: The value was 0.215.
